# Over roughly 33,000 sequences, “E-score (-0.5 to 0.5)” has its median near -0.036; the highest 2% begin near 0.37. The list shows a part of the results.
# Target: T1, Yer064c (UniProt P40041)
# T1 sequence: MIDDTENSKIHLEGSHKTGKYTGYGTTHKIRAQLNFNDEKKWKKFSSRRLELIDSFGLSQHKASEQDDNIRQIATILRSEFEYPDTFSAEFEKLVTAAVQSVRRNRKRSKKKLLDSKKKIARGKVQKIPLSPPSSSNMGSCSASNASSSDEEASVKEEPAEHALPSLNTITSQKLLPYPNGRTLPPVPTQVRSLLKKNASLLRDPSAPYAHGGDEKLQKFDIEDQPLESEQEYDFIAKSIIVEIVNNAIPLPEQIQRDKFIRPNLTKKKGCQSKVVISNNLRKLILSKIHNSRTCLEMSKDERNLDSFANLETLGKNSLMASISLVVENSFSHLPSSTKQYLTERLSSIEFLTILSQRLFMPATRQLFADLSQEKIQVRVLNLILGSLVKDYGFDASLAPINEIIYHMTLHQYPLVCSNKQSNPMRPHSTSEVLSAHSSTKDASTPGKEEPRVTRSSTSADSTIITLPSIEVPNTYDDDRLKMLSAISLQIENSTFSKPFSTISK
# Experiment: PBM E-score (8-mer binding enrichment) (E-score (-0.5 to 0.5)); higher = stronger / more preferred TF binding; most listed sequences are background and not binding sites
# Conditions: protein concentration: 200 nM; construct: GST-full length
# How it was run: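 Using PURExpress in vitro transcription/translation, GST-tagged yeast transcription factors were made in full-length or DNA-binding-domain form. These were applied at about 100-200 nM to double-stranded universal all-10-mer Agilent arrays, and bound protein was detected with fluorescent anti-GST. Scans were normalised with masliner before the Universal PBM Analysis Suite assigned E-scores to ungapped eight-base words pooled with their reverse complements.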
row,Sequence,PBM E-score
1,AATTATGT,0.101
2,AGAGACGA,0.0605
3,CCGTGAGC,-0.158
4,ACCGTTCC,-0.114
5,CACCAGTA,-0.0101
6,GCAGTGGC,-0.154
7,ATAGGGGC,-0.262
8,CAGTATGG,0.0644
9,TCAACCGA,0.153
10,CATTACAA,0.0194
11,AAACTGGA,-0.113
12,AAACATAT,0.142
13,CGATCGTC,0.00604
14,CCACAGTC,0.223
15,CAGCGTAA,-0.0143
16,AAGTGCCA,-0.278
17,CGAAAAAC,-0.027
18,GGATGCAA,-0.109
19,GTTGTGGA,0.0795
20,CCCGTCCC,-0.12
21,CAAGGCTC,-0.248
22,CGAGCATA,-0.254
23,GTAACTGA,0.0894
24,AGGTAGGA,-0.0376
25,GACCTAAA,0.0605

row,Sequence,PBM E-score
1,GAAAGCAA,-0.0727
2,ACACGATA,-0.0453
3,TGGTCCAA,-0.244
4,CTAGGGAG,-0.165
5,CCGTAAGA,0.0154
6,CTAGAACA,0.0923
7,ACCTTAGC,0.03
8,GGGCCCCC,-0.332
9,AACCCCGA,-0.149
10,TGAGCGAA,0.093
11,AGGGTCAT,-0.0445
12,AGCGTACG,-0.127
13,GTGTAGTA,0.0702
14,CTGGCTGA,0.124
15,AACGTCGT,-0.0362
16,AGTCGCAA,0.355
17,ATTAATAG,0.152
18,AAGGCCCT,-0.0941
19,CCCACCAA,-0.102
20,CTCAAAGC,0.137
21,AGTTGGAA,-0.00887
22,AATCGGTA,-0.0571
23,GAATGTGA,0.164
24,CATTCGCA,-0.139
25,TCACCTAA,0.181

row,Sequence,PBM E-score
1,GAGAGCTC,-0.213
2,AATCGCGT,0.203
3,CTCCACTA,0.0692
4,AGATCCAG,-0.277
5,ATCAGTTC,0.198
6,TATATGCA,-0.0473
7,CGCCAGCA,-0.27
8,GTAGTAGA,-0.0115
9,CAACAACA,0.104
10,GCTGGCGA,-0.156
11,CAGTGGAC,0.0837
12,ATGCCTCA,-0.178
13,CGGAGCAG,-0.0633
14,TAGTCGAA,0.243
15,AGTACGAA,0.149
16,CTACATAC,0.0297
17,CGGCGAGA,0.0493
18,ATGCCACC,0.0347
19,ATTATAGC,-0.0818
20,AATGCCAG,-0.197
21,CCTGCATC,-0.0758
22,ACGATACT,-0.155
23,ATGCGTAG,-0.0678
24,GTCGTTCA,0.141
25,CTACGGCA,-0.128

row,Sequence,PBM E-score
1,GATTTAAC,0.198
2,CCGGCCAA,-0.106
3,CTGTGTTA,0.127
4,GGTTTCTA,-0.133
5,ATTATCCA,0.0794
6,TCTCATCA,0.115
7,CTGTAGGC,-0.143
8,GGCTCTGA,0.0959
9,GTGGGGCA,-0.136
10,ATCACTTA,0.24
11,ATTAATCG,0.269
12,CTACACTA,0.143
13,GGTGTAAA,-0.207
14,CACGTTAC,0.106
15,CTTACTTA,0.0914
16,AACCAACC,-0.128
17,ACAGGTCG,-0.251
18,ATAGTTAC,0.101
19,AATTGTGG,0.0285
20,CGCGAGCG,-0.174
21,ATGAGAAT,0.0479
22,ATATACCC,-0.0523
23,AGGTCTGG,-0.193
24,AAGACACT,0.0108
25,AGTTCTTA,0.106

row,Sequence,PBM E-score
1,CTATACAG,-0.0184
2,CGCACGAG,-0.127
3,CACTGCTC,0.00201
4,CGGTGCGC,-0.165
5,GGTTATAC,-0.022
6,CACGTCTA,0.0964
7,AATCTTTC,0.238
8,AATCCGTA,-0.11
9,GCACCCTA,-0.325
10,AATCACTG,0.375
11,GTATGAAC,-0.0715
12,ATACACTG,0.0148
13,ACACTCGG,-0.00987
14,GCTGGGAC,-0.1
15,GACATACC,-0.168
16,AGAAAGCT,-0.0789
17,CTGGATGA,0.24
18,GGGACTGA,0.119
19,CCGCTAGA,-0.215
20,AGAAGGTG,-0.0166
21,AGTAGGAG,-0.0694
22,GGGGTAAA,-0.17
23,AACAGTCC,0.188
24,AGATCGCA,-0.14
25,ACGGACCT,-0.222

row,Sequence,PBM E-score
1,GGCGGGCA,-0.297
2,AGGAAGCG,-0.186
3,ACGCCCAG,-0.157
4,CCGCACCC,-0.295
5,CGCCGACC,-0.0763
6,AGGCATCA,-0.113
7,CGAAGAGA,0.0763
8,TCAGATAA,0.168
9,CTGGGTAC,-0.0609
10,AGTGGAAC,-0.205
11,ACGGTAGG,-0.117
12,AGGTCACT,0.0701
13,AGCGAACC,0.0203
14,TAAACCTA,0.0281
15,TCCGTAGA,-0.143
16,CAGGCTTA,-0.107
17,AAACCGTA,-0.165
18,AATCATCC,0.468
19,ATTCGCTA,-0.0382
20,CATACGGC,0.135
21,GATATAGA,-0.0585
22,AGGGCGCC,-0.28
23,CTCATCAA,0.271
24,ATGATCTA,0.161
25,CGATAGCA,-0.127

row,Sequence,PBM E-score
1,CGACCCCA,-0.132
2,CTCAACCA,0.152
3,ACGGTTGG,-0.239
4,CACGCACC,-0.193
5,ACTAGGCT,0.172
6,ACCAGTAC,-0.0494
7,AGGCTAGA,-0.0309
8,CCTTCTAG,-0.244
9,CTGTCTGC,-0.125
10,ACTCTCGA,0.189
11,AGCTAGGG,-0.186
12,CAGCCCAC,-0.0415
13,GCGGGGCC,-0.172
14,CGTATTAA,0.00537
15,ACCCTATG,0.155
16,ACAGTCCG,0.128
17,ACTATCGC,0.257
18,ACTAAGTC,0.376
19,CCCGGCCC,-0.131
20,TATAAAGA,0.0948
21,GCCAATAA,0.136
22,AAAGCTGT,-0.129

# From the supplement of paper PMC3334620
